These results are taken from patent publication US20160237133A1.

The target in the assay is FGF receptors (FGFR) of HEK293 cells. Nature of the assay: cell-based or functional assay.

On to “NT1 (FGF1^ΔNT, SEQ ID NO: 15) (a stretch of the chain, no sequence given) (ligand)”, for which the FGFR signaling (phosphorylation of downstream ERK and AKT pathways, Western blot, HEK293 cells), relative to FGF1 (fold reduction) came out at 100.
